Measurements from PubChem BioAssay AID493208 (National Center for Advancing Translational Sciences (NCATS), 2011).
Hit rate of the full screen: of about 44,000 compounds, about 340 (0.77%) were called active. About 5% were inconclusive and are not listed. The call rests on the fitted dose curve; in most records, active means well fitted inhibition curve with a large enough effect; inconclusive means small, poorly fitted or top-dose-only effect; inactive means flat fitted curve, though single readings scatter. The list shows a part of the results.

assay: Acumen qHTS Assay for Inhibitors of the mTORC1 Signaling Pathway in MEF (Tsc2-/-, p53-/-) Cells: Sytravon; conditions: phospho-rpS6 immunofluorescence/PI, 24 h; series mostly up to 38.3 µM; activity change, negative = inhibition: at the top concentration; further: nearly all actives have a fitted effect of over 50% in size
Text: NIH Molecular Libraries Probe Production Centers Network [MLPCN] NIH Chemical Genomics Center [NCGC] MLPCN Grant: NS059428-01 Assay Submitter (PI): Blenis, John; Hoffman, Greg; Harvard University NCGC Assay Overview: The mammalian target of rapamycin (mTOR) is an intracellular serine/threonine kinase Aberrant regulation of mTOR signaling plays a causative role in a number of human diseases, including cancer, benign tumors such as lymphangioleiomyomatosis (LAM) and Tuberous Sclerosis Complex (TSC), and metabolic diseases such as diabetes and obesity. This project aims to identify inhibitors of ribosomal protein S6 (rpS6) phosphorylation. The phosphorylation of rpS6 is a key event downstream of mTOR activation. The assay uses a phospho-specific antibody of phospho-rpS6 to detect inhibitors of mTOR activation. Mutations in the Tsc1 and Tsc2 genes are the underlying genetic lesions responsible for TSC, causing constitutive activation of the mTORC1 pathway and leading to profound effects on cell metabolism. Aberrant metabolism in cancer has recently received significant attention as a target to develop therapeutic agents in the treatment of cancer.1 As Tsc2-/- cells have lost the ability to respond to energy and growth factor deprivation, these cells are unable to properly down regulate cellular biosynthetic processes in response to metabolic stress, and are thus extremely sensitive to glucose deprivation-induced death.2 A central goal of this project is to explore the unique cell survival and metabolic properties of cells with Tsc1 or Tsc2 by screening for compounds that selectively target the Tsc2-/- MEFs by screening both Tsc2-/- and WT MEF cell lines. We hope to better understand these aspects of TSC physiology in order to exploit them for therapeutic benefit.
NCGC Acumen Assay Protocol Summary: For quantitative high throughput analysis of mTORC1 signaling, we developed a cell-based assay for immuno-fluorescence based detection of rpS6 phosphorylation on the Acumen Explorer that will be used a platform for the primary small molecule screen. Mouse embryonic fibroblasts (MEFs) are cultured in 1536-well plates using DMEM + 10% FBS. Twenty-four hrs after plating, test compounds (solubilized in DMSO) are delivered and incubated with the cells for 24 hrs at 37 degree Celsius. Following the incubation, media with compound is aspirated and the cells are fixed in 4% paraformaldehyde (PFA) containing PBS + 0.2% TX-100. Next, PFA is aspirated, cells are washed two times with PBS plus 0.2% TX-100 and the cells are blocked for 1 hr at room temperature (blocking buffer: LiCOR Blocking Buffer plus 0.2% TX-100). […] Cells are washed two times with PBS plus 0.2% TX-100, and stained with 10 uM propidium iodide (PI) for 20-25 minutes for cell number measurement (1:500 dilution of Hoescht staining is also added for IN Cell imaging). The plates are scanned on the Acumen Explorer laser scanning instrument (TTP Labtech) using the 488nm laser for simultaneous excitation of the Alexa-488 and PI. […] The normalized phospho-S6 staining is calculated as the ratio of the integrated Alexa 488 intensity divided by the integrated PI intensity for the single concentration rapamycin control (7.5 nM) and DMSO columns. […] Inhibition of the pathway is defined based on the normalized phospho-S6 intensity in rapamycin treated cells. Active cells are defined as those with a normalized phospho-S6 staining above this threshold, and each treatment is reported as the % positive cells in the well, where thresholds are defined by selecting wells with the highest and lowest signal and differentiating between the % non-active and % active populations. In addition to the pathway specific phospho-S6 endpoint, the number of PI stained cells from the Acumen is recorded as a measure of cell viability. The primary screen was performed with a MEF cell line in a defined genetic background, Tsc2-/-, p53-/- cell line stably transfected with an empty vector control (Tsc2-/- MEF).

Activity change, negative = inhibition, inactive:
O=C(CSc1nc(-c2ccco2)nc2cc(=O)[nH]n12)Nc1ccccc1Cl -22.6%
COc1ccc(-n2c(-c3ccc(F)cc3)cn3c4c(=O)n(C)c(=O)n(C)c4nc23)cc1 5.72%
CCOc1ccc2ncc3c(-c4ccccc4)nn(CC(=O)Nc4cccc(F)c4)c3c2c1 -6.82%
COc1ccccc1CNC(=O)Cn1c(=O)oc2ccccc21 3.27%
O=C(CSc1nc2c(c(=O)[nH]1)CCCC2)Nc1cccc(O)c1 1.7%
COc1cc2[nH]c(=O)n(CCCC(=O)NCc3ccccc3Cl)c(=O)c2cc1OC -1.2%
COCCCNC(=O)C1CCN(c2nnc(-n3cccc3CNc3ccc(C)cc3)s2)CC1 0.215%
COC(=O)c1ccccc1NC(=O)CSc1nc2sc3c(c2c(=O)[nH]1)CCCC3 -1.7%
O=C(CN1C(=O)C2CCCCN2c2ccc(C(=O)N3CCCC3)cc21)NCc1ccccc1 (stereo not given) 0%
COCCCNC(=O)Cn1c(=O)n(-c2cccc(C)c2)c(=O)c2c3c(sc21)CN(C(C)=O)CC3 -5.94%
COc1ccccc1CNc1nc(-c2ccco2)nn1C(=O)c1ccccc1[N+](=O)[O-] -8.18%
CCCCn1c(CCNC(=O)c2ccc(F)cc2)nc2ccccc21 2.71%
COc1cccc(CNC(=O)Cn2cc3c(n2)-c2c(oc(C(=O)N4CCOCC4)c2C)CC3)c1 -6.9%
COc1ccc(S(=O)(=O)N2Cc3ccccc3CC2C(=O)Nc2cccc(C)c2)cc1OC (stereo not given) -15.6%
Cc1cc(=O)n2c(C(=O)Nc3ccc(C)c(C)c3)c(C(=O)Nc3ccccc3)sc2n1 -4.15%
CN(C)c1ccc(CNc2nc(-c3ccco3)nn2S(=O)(=O)c2ccc(Cl)cc2)cc1 -2.2%
CCN(C(=O)CSc1nnc(-c2ccc(Cl)cc2)o1)c1ccccc1 -0.259%
CCc1cccc(C)c1NC(=O)C1CCCN(S(=O)(=O)c2cccc3nsnc23)C1 (stereo not given) 2.83%
Cc1ccc2nc(N3CCN(C(=O)C4COc5ccccc5O4)CC3)sc2c1 (stereo not given) -1.61%
Cc1ccnc(NS(=O)(=O)c2ccc(NC(=O)c3cc(=O)c4ccc(C)c(C)c4o3)cc2)n1 -1.46%
COC(=O)c1ccc(CSc2nc3c([nH]c4ccccc43)c(=O)n2-c2cccc(OC)c2)o1 -8.73%
COc1ccc(-c2nc3ccccc3o2)cc1NC(=O)c1ccc(N2CCC(C)CC2)c([N+](=O)[O-])c1 -18%
COc1ccc(CNC(=O)c2cc3c(=O)n(Cc4cccs4)ccc3nc2C)cc1 -5.19%
CCOC(=O)c1sc(NC(=O)c2nc(SCC)ncc2Cl)c(C(=O)OCC)c1C -16.1%
CN(C)CCNC(=O)Cc1ccc(NC(=O)N2CCCCc3ccccc32)cc1 -4.41%
Cc1nn(Cc2ccccc2)c(C)c1NC(=O)c1cc(C(C)C)on1 -3.44%
Cc1ccc(C(=O)c2cn(Cc3ccc(F)cc3)c3nc(C)ccc3c2=O)cc1 -21.3%
COc1ccc(Cl)cc1NC(=O)c1c(C(=O)Nc2cccc(C)c2C)sc2nc(C)cc(=O)n12 2.68%
CCOC(=O)c1cc(-c2ccc(C)cc2)n(CC(=O)Nc2cccc(C(C)=O)c2)c1C -2.52%
COCCCn1c(=N)c(S(=O)(=O)c2ccccc2)cc2c(=O)n3cccc(C)c3nc21 -4.71%
CC1(C)CC(=O)c2cc(C(=O)Nc3ccc(Br)cc3)c(=O)n(-c3ccc(Cl)cc3)c2C1 -0.872%
COc1ccccc1N1CCN(C(=O)CCSCc2ccccc2F)CC1 2.73%
Cc1oc(-c2ccccc2F)nc1Cn1c(SCc2ccccc2F)nc2ccncc21 -6.66%
CCn1cc2nc(SCc3cc(C)ccc3C)n(Cc3ccc(C)cc3)c(=O)c2n1 2.24%
Cc1ccccc1OCc1nc2c3cnn(-c4ccccc4Br)c3ncn2n1 2.3%
COc1ccc(Nc2oc(/C=C/c3ccc(F)cc3)nc2C#N)cc1 -0.883%
Cc1ccc(C2c3cccn3CCN2S(=O)(=O)c2ccc([N+](=O)[O-])cc2)cc1 (stereo not given) 0.201%
O=S(=O)(NCCc1csc(-c2ccc(F)cc2)n1)c1ccc(F)cc1F -0.16%
COc1ccc(N2CC(NC(=O)c3cccs3)CC2=O)cc1OC (stereo not given) -5.36%
O=C(Nc1ccc(F)cc1)c1ccc(-n2cnnc2)cc1 -1.65%
CCc1ccc(-c2[nH]c3c(c2-c2c(-n4cccc4)n(C)c(=O)[nH]c2=O)c(=O)[nH]c(=O)n3C)cc1 0%
O=C(Nc1nnc(S(=O)(=O)N2CCCCC2)s1)c1ccc(Cl)cc1 -0.252%
CC(=O)Nc1ccc(NS(=O)(=O)c2ccc3c(c2)CCCN3C(C)=O)cc1 -6.17%
COc1ccc(-n2ncc(C(=O)Nc3ccc(C)cc3Cl)c2C2CCN(C(=O)OC(C)(C)C)CC2)cc1 -0.0346%
CCOc1ccc(-c2cn3c(n2)sc2cc(C(=O)NCCC4=CCCCC4)ccc23)cc1 1.73%
CCOc1ccc(NC(=O)CSc2nnc(CC)c(CC)n2)cc1 9.46%
CCN(CC)CCNC(=O)C1CCCN(c2nnc(C)c3c(C)n(-c4ccc(Cl)cc4)nc23)C1 (stereo not given) -0.0756%
Cc1cccc(C)c1NC(=O)C1CCCN(S(=O)(=O)c2c(C)noc2/C=C/N(C)C)C1 (stereo not given) -2.19%
COc1ccccc1CNC(=O)c1ccc(NC(=O)N2CC(C)Sc3ccccc32)cc1 (stereo not given) -8.61%
CCOC(=O)c1cc(-c2ccc(C)cc2)n(CCC(=O)NCc2ccccc2)c1C -8.19%
Cc1cccc(OCC(=O)Nc2ccc(C(=O)OCc3cc(=O)n4nc(C5CC5)sc4n3)cc2)c1 17%
COC(=O)c1ccc(NC(=O)CSc2ccc(-c3cccs3)nn2)cc1 -2.45%
Cc1ccc(-c2nc3scc(CCNS(=O)(=O)c4ccc(C)c(C)c4)n3n2)cc1 -4.26%
Cc1ccc(-c2noc(-c3cccnc3NCc3ccc(Cl)cc3)n2)cc1 -2.29%
O=C(NCCc1nc2ccccc2n1CCOc1ccc(Cl)cc1)C1CCCCC1 1.37%
CCc1ccc(NC(=O)C(Cc2ccccc2)NS(=O)(=O)c2ccc3c(c2)CCN3C(C)=O)cc1 (stereo not given) -13.4%
Cc1cc(C)c(NC(=O)c2cc(CN3CCOCC3)on2)c(C)c1 0%
COc1ccc2cc(S(=O)(=O)c3ccccc3F)c(=O)oc2c1 4.96%
C#CCOc1ccc(C2C(C(=O)OC)=C(C)NC3=C2C(=O)c2ccccc23)cc1OCC (stereo not given) -21.1%
CCOc1ccc(Sc2cc(C(=O)NCCCOC)c3ccccc3n2)cc1 8.45%
CN1CCN(C(=O)c2cnn(-c3cccc(F)c3)c2C2CCN(C(=O)OC(C)(C)C)CC2)CC1 5.87%
Cc1ccc(C)c(CSc2c(C(C)C)cnc3c2c(=O)n(C)c(=O)n3C)c1 -12.8%
Cc1csc2nc(COc3ccc(NC(=O)COc4ccc(F)cc4)cc3)cc(=O)n12 0.802%
COc1ccc(N2CCN(C(CNC(=O)c3ccc(C)cc3)c3ccc4c(c3)OCO4)CC2)cc1 (stereo not given) 0.258%
CC(C)c1ccc(CNc2nc(-c3ccco3)nn2S(=O)(=O)c2ccccc2)cc1 -19.6%
CCOc1ccccc1CNC(=O)c1nn(C)c2c1CS(=O)(=O)c1ccccc1-2 -4.12%
COc1ccc(NC(=O)c2sc3nc[nH]c(=O)c3c2C)cc1 -0.588%
Cc1ccc(-c2cc(C(=O)Oc3ccccc3)c3cccc(C)c3n2)cc1 -1.1%
COC(=O)c1cc(S(=O)(=O)N2CCN(c3ccc(C)cc3C)CC2)cn1C 1.47%
Cc1sc(-c2cc3ccccc3oc2=O)nc1-c1ccc(Cl)cc1 2.73%
O=C(CN1C(=O)COc2ccc(S(=O)(=O)N3CCCC3)cc21)N1CCN(c2ccccc2F)CC1 -11%
Cc1ccccc1-c1nc(CS(=O)CC(=O)NCCc2ccc(Cl)cc2)c(C)o1 (stereo not given) 0.907%
CC(C)Oc1ccc(CNC(=O)C2COc3ccccc3C2)cc1 (stereo not given) 0.394%
COc1ccc(-c2noc(-c3ccc(N4CCCCC4)c([N+](=O)[O-])c3)n2)cc1 1.21%
CCOC(=O)c1cnc2ccc(OCC)cc2c1N1CCN(c2cccc(Cl)c2)CC1 -21.2%
O=C1CN(C(=O)C2CCCCC2)C(c2ccccc2)c2cc(F)ccc2N1 (stereo not given) -1.5%
CCOc1ccc(C2c3c(oc4ccc(C)cc4c3=O)C(=O)N2c2nc(C)c(C)s2)cc1OC (stereo not given) -0.23%
COC(=O)c1ccccc1NC(=O)Nc1cccc(OCc2cc(=O)n3cccc(C)c3n2)c1 -5.17%
CCCCCCOc1ccc(-c2nc3ccc(Br)cc3c(=O)o2)cc1 -4%
Cc1ccc(CCNC(=O)CN2C(=O)COc3ccc(S(=O)(=O)N4CCC(C)CC4)cc32)cc1 -3.79%
CCN1CCN(C(c2cccc(Cl)c2)c2c(O)cc(C)n(CCOC)c2=O)CC1 (stereo not given) 2.49%
Cc1ccc(-c2nnc(SCC(=O)NCCC(C)C)nc2-c2ccc(C)cc2)cc1 -2.43%
CCn1cc(C(=O)NCCCN(CC(C)C)CC(C)C)c(=O)c2cc(S(=O)(=O)N3CCc4ccccc4C3)ccc21 -3.78%
COc1cccc(C2=NS(=O)(=O)N(C)C(C(=O)Nc3cccc(O)c3)=C2)c1 0.388%
COc1ccc(CC(=O)Nc2ccc(-c3nc4ccccc4s3)cc2Cl)cc1 0.659%
O=C(NCc1ccccc1)C(=O)NCC(c1ccco1)S(=O)(=O)c1ccccc1 (stereo not given) 2.56%
CCc1ccc(NC(=O)N(Cc2c[nH]c3ccccc23)C2CCCCCC2)cc1 -0.443%
Cc1cc2nn(-c3ccc(F)cc3)nc2cc1NC(=O)c1cc(Cl)ccc1Cl -8.21%
CCCN(CCC)c1nn2c(=O)c(C(=O)NCc3cccc(OC)c3)cnc2s1 -13.6%
COc1ccc(Cl)cc1NC(=O)CSc1nnc(C)n2c1cc1occc12 -2.9%
COC(=O)c1sccc1S(=O)(=O)N1CCN(c2ccccc2)CC1 -0.0811%
CCOc1ccc(CCNC(=O)CCc2c(C)nc3c4c(C)cc(C)nc4nn3c2C)cc1 -3.86%
COc1cccc(NC(=O)NCc2ccc3c(c2)CCN3C(=O)c2ccccc2)c1 -2.61%
Cc1cccc(C(=O)Nc2sc3c(c2C(=O)NCc2ccco2)CCCC3)c1 -14.3%
Cc1ccc2[nH]c(=O)c3cc(C(=O)N4CCN(c5ccccc5)CC4)sc3c2c1 3.14%
